Measurements taken from ChEMBL document CHEMBL1961873, “Compounds: GSK PKIS; Assays: Nanosyn kinase panel” (2012).
For some assays here: The strong results were mostly taken out for another list; the other results follow. The list shows a part of the results, in another mix than the full data.

Tests used:
[1] = tested on: Tyrosine-protein kinase ABL1 (Homo sapiens), P00519 [T315I]; conditions: at 1 µM
[2] = tested on: Tyrosine-protein kinase ABL1 (Homo sapiens), P00519 [Y253F]; conditions: at 0.1 µM
[3] = tested on: Tyrosine-protein kinase ABL1 (Homo sapiens), P00519 [Y253F]; conditions: at 1 µM
[4] = molecular target: Tyrosine-protein kinase ABL1 (Homo sapiens) (UniProt P00519); conditions: at 0.1 µM
[5] = molecular target: Tyrosine-protein kinase ABL1 (Homo sapiens) (UniProt P00519); conditions: at 1 µM
[6] = molecular target: ALK tyrosine kinase receptor (Homo sapiens) (UniProt Q9UM73); conditions: at 0.1 µM
Sequence of UniProt Q9UM73 (Q9UM73 whole entry, looked up): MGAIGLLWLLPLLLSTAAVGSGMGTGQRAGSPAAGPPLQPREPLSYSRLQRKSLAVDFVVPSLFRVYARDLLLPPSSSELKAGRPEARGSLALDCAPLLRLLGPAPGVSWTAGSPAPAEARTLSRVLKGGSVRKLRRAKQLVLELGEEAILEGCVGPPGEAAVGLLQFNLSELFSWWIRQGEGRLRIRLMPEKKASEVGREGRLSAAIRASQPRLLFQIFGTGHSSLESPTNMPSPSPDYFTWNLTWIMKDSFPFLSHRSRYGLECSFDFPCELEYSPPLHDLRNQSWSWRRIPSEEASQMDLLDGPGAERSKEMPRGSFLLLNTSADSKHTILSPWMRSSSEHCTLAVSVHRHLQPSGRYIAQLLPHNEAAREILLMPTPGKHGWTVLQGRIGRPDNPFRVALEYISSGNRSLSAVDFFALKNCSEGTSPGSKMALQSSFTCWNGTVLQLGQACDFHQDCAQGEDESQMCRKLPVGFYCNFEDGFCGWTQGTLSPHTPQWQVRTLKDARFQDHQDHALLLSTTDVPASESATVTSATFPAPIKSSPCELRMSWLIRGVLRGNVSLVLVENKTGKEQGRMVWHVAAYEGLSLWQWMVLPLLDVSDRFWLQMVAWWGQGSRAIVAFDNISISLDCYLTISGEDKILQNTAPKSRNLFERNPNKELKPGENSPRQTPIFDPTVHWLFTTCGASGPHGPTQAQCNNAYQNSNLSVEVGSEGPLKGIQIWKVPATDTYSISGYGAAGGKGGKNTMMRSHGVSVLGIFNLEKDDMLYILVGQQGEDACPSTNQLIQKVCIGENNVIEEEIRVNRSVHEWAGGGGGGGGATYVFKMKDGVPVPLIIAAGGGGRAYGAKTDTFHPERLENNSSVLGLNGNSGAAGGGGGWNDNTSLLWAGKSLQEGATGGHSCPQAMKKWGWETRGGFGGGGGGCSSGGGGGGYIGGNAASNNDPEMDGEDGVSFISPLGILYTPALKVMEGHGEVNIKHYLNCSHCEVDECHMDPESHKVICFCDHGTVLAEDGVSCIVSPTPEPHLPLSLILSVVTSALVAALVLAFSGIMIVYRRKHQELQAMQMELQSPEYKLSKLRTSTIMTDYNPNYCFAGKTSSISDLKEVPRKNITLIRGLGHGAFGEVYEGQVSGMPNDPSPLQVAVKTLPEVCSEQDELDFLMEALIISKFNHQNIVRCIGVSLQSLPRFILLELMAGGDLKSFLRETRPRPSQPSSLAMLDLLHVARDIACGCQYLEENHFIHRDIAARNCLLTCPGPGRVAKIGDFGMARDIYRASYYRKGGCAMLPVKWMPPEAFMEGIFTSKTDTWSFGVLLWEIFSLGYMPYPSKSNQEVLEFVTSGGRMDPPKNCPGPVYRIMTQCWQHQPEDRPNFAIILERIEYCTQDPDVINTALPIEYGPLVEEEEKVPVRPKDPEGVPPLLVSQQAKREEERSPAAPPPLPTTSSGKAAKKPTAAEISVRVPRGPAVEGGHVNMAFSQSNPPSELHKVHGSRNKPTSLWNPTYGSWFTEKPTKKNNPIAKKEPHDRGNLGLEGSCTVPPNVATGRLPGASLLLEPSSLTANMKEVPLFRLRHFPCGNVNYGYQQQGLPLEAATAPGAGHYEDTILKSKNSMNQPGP

[7] = molecular target: ALK tyrosine kinase receptor (Homo sapiens) (UniProt Q9UM73); conditions: at 1 µM
[8] = molecular target: Tyrosine-protein kinase ABL2 (Homo sapiens) (UniProt P42684); conditions: at 0.1 µM
Sequence of UniProt P42684 (P42684 whole entry): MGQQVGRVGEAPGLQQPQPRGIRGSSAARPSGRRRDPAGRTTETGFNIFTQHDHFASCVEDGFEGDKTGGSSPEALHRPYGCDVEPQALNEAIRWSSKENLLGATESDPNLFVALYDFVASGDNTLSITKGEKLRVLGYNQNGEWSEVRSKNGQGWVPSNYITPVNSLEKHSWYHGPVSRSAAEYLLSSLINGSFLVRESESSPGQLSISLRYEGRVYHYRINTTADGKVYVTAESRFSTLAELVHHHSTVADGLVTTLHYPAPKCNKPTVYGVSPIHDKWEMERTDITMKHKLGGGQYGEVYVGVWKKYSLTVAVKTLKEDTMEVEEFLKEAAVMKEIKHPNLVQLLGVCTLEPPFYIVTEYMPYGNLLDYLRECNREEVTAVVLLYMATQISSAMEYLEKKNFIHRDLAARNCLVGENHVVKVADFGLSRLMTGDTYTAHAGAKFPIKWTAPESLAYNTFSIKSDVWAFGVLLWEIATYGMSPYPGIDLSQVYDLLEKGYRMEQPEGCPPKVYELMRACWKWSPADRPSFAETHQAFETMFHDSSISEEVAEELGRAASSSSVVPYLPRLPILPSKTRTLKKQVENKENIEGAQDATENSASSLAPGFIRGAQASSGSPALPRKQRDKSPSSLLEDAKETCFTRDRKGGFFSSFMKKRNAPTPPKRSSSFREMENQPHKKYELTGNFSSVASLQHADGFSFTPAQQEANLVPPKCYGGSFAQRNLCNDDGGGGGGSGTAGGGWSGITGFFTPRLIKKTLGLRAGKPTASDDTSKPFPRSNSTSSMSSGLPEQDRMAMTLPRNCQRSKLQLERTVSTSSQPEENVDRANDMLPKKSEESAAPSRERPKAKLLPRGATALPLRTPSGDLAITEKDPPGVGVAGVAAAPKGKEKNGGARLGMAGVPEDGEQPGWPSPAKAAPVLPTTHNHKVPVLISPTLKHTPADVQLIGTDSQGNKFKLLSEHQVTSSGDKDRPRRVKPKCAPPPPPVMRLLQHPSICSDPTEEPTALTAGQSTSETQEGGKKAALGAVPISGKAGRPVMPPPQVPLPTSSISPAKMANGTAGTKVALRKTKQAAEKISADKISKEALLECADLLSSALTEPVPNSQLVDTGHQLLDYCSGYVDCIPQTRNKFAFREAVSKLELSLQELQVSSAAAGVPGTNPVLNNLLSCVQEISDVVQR

[9] = molecular target: Tyrosine-protein kinase ABL2 (Homo sapiens) (UniProt P42684); conditions: at 1 µM
[10] = molecular target: Tyrosine-protein kinase receptor UFO (Homo sapiens) (UniProt P30530); conditions: at 0.1 µM;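 further: values are mean percent inhibition of AXL from the GSK PKIS screen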
Sequence of UniProt P30530 (P30530 whole entry): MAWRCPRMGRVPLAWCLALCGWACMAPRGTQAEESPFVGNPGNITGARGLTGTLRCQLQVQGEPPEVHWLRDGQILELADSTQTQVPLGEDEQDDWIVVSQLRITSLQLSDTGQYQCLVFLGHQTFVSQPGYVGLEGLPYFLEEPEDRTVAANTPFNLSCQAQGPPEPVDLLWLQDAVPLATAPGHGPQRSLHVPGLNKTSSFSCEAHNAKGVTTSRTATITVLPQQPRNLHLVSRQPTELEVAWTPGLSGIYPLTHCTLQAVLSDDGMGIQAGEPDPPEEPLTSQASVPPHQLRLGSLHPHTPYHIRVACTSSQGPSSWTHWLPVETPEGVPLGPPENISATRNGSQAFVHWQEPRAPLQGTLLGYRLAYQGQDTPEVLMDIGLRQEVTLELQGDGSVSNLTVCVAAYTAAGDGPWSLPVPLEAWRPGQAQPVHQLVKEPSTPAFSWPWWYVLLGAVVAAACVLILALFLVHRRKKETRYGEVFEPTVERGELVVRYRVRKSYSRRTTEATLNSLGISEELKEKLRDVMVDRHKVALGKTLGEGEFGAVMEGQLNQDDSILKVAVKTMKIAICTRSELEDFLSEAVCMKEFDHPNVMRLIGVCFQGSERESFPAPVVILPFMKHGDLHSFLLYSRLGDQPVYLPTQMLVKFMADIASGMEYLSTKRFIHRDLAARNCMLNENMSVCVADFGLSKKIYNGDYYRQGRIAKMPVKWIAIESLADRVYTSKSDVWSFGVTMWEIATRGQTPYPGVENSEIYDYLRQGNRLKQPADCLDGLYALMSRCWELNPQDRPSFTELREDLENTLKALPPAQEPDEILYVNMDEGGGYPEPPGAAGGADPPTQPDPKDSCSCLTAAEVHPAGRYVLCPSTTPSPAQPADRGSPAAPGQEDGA

Molecule O=C1NC(=O)C(c2ccccc2)=C1Nc1ccccc1 has an inhibition [1] of 6.54%, an inhibition [2] of 5.67% and an inhibition [3] of 8.42%. The inhibition [4] was 8.44%, the inhibition [5] was 15.3% and the inhibition [6] was 4.6%. The inhibition [7] was 15%, the inhibition [8] was 4.49% and the inhibition [9] was 5.54%. For the same molecule, the inhibition [10] was -7.44%.

Fc1ccc(Oc2nccc(-c3c(-c4ccc(F)cc4)ncn3C3CCNCC3)n2)cc1 gave an inhibition [1] of 0.06%, an inhibition [2] of 3.57% and an inhibition [3] of 1.3%. It also gave an inhibition [4] of -0.98%, an inhibition [5] of -4.18% and an inhibition [6] of -0.41%. It also gave an inhibition [7] of 0.66%, an inhibition [8] of -1.62% and an inhibition [9] of -2.12%. It also gave an inhibition [10] of -8.81%.

O=C1NC(=O)C(c2ccccc2Cl)=C1Nc1cc(Cl)c(O)c(Cl)c1 gave an inhibition [1] of 4.94%, an inhibition [2] of 4.61% and an inhibition [3] of 8.29%. For the same molecule, the inhibition [4] was 3.48%, the inhibition [5] was 10.4% and the inhibition [6] was 2.14%. It also gave an inhibition [7] of 3.85%, an inhibition [8] of 3.61% and an inhibition [9] of 10.2%. It also gave an inhibition [10] of -4.9%.

Work on Cc1cccc(Oc2nccc(-c3c(-c4ccc(F)cc4)ncn3C3CCNCC3)n2)c1C yielded an inhibition [1] of 3.42%, an inhibition [2] of 2.09% and an inhibition [3] of 3.03%. The inhibition [4] was 3.52%, the inhibition [5] was 5.08% and the inhibition [6] was 3.48%. It also gave an inhibition [7] of 4.68%, an inhibition [8] of 2.44% and an inhibition [9] of 4.31%. It also gave an inhibition [10] of -7.26%.

For CC(C)(C)c1ccc(Oc2nccc(-c3c(-c4ccc(F)cc4)ncn3C3CCNCC3)n2)cc1, the inhibition [1] was 4.41%, the inhibition [2] was 4.32% and the inhibition [3] was 5.3%. The inhibition [4] was 2.32%, the inhibition [5] was 4.69% and the inhibition [6] was 2%. For the same molecule, the inhibition [7] was 3.19%, the inhibition [8] was 1.72% and the inhibition [9] was 3.61%. It also gave an inhibition [10] of -4.21%.

O=C(O)c1ccc(Oc2nccc(-c3c(-c4ccc(F)cc4)ncn3C3CCNCC3)n2)cc1 was tested, and the inhibition [1] was 1.63%, the inhibition [2] was 2.38% and the inhibition [3] was 1.66%. It also gave an inhibition [4] of 4.66%, an inhibition [5] of 5.05% and an inhibition [6] of 4.3%. It also gave an inhibition [7] of 5.07%, an inhibition [8] of 3.39% and an inhibition [9] of 5.05%. It also gave an inhibition [10] of -6.97%.

In the case of Fc1ccc(-c2ncn(C3CCNCC3)c2-c2ccnc(Oc3cccc(C(F)(F)F)c3)n2)cc1, the inhibition [1] is reported as 4.06%, the inhibition [2] is reported as 5.27% and the inhibition [3] is reported as 5.56%. The inhibition [4] was 6.03%, the inhibition [5] was 7.86% and the inhibition [6] was 4.02%. It also gave an inhibition [7] of 5.34%, an inhibition [8] of 5.73% and an inhibition [9] of 8.03%. The inhibition [10] was -8%.

COc1ccccc1C1=C(Nc2ccccc2)C(=O)NC1=O gave an inhibition [1] of 20.1%, an inhibition [2] of 2.52% and an inhibition [3] of 8.19%. For the same molecule, the inhibition [4] was 5.95%, the inhibition [5] was 21.9% and the inhibition [6] was 2.63%. It also gave an inhibition [7] of 7.95%, an inhibition [8] of 7.45% and an inhibition [9] of 10.1%. The inhibition [10] was -2.18%.

CS(=O)(=O)c1ccc(Oc2nccc(-c3c(-c4ccc(F)cc4)ncn3C3CCNCC3)n2)cc1 was tested, and the inhibition [1] was 3.6%, the inhibition [2] was 4.05% and the inhibition [3] was 3.8%. For the same molecule, the inhibition [4] was 3.57%, the inhibition [5] was 4.83% and the inhibition [6] was 3.34%. The inhibition [7] was 3.77%, the inhibition [8] was 3.57% and the inhibition [9] was 5.04%. The inhibition [10] was -5.49%.

With Fc1ccc(-c2ncn(C3CCNCC3)c2-c2ccnc(Oc3ccc(Cl)cc3)n2)cc1 the inhibition [1] was 1.07%, the inhibition [2] was 2.57% and the inhibition [3] was 1.98%. It also gave an inhibition [4] of 0.14%, an inhibition [5] of 0.8% and an inhibition [6] of 1.35%. The inhibition [7] was 1.34%, the inhibition [8] was 3.95% and the inhibition [9] was -0.16%. For the same molecule, the inhibition [10] was -0.96%.

NC(=O)CCc1ccccc1Oc1nccc(-c2c(-c3ccc(F)cc3)ncn2C2CCNCC2)n1 was tested, and the inhibition [1] was -0.56%, the inhibition [2] was -0.62% and the inhibition [3] was -0.03%. The inhibition [4] was -1.75%, the inhibition [5] was -2.21% and the inhibition [6] was -3.29%. The inhibition [7] was -1.97%, the inhibition [8] was -1% and the inhibition [9] was -1.4%. It also gave an inhibition [10] of 0.65%.

Work on O=C1NC(=O)C(c2cccc([N+](=O)[O-])c2)=C1Nc1cc(Cl)c(O)c(Cl)c1 yielded an inhibition [1] of 0.69%, an inhibition [2] of 0.46% and an inhibition [3] of 0.15%. For the same molecule, the inhibition [4] was 2.47%, the inhibition [5] was 0.82% and the inhibition [6] was 3.25%. It also gave an inhibition [7] of 3.11%, an inhibition [8] of 2.92% and an inhibition [9] of 3.78%. The inhibition [10] was 1.59%.

In the case of COc1ccccc1Oc1nccc(-c2c(-c3ccc(F)cc3)ncn2C2CCNCC2)n1, the inhibition [1] is reported as 2.41%, the inhibition [2] is reported as 1.99% and the inhibition [3] is reported as 3.77%. It also gave an inhibition [4] of 4.06%, an inhibition [5] of 5.27% and an inhibition [6] of 3.92%. For the same molecule, the inhibition [7] was 5.39%, the inhibition [8] was 2.57% and the inhibition [9] was 4.54%. The inhibition [10] was -6.79%.

With Fc1ccc(-c2ncn(C3CCNCC3)c2-c2ccnc(Oc3cccc(F)c3)n2)cc1 the inhibition [1] was 2.15%, the inhibition [2] was 4.09% and the inhibition [3] was 5.95%. It also gave an inhibition [4] of 7.47%, an inhibition [5] of 12.1% and an inhibition [6] of 3.75%. The inhibition [7] was 4.16%, the inhibition [8] was 5.61% and the inhibition [9] was 11.8%. The inhibition [10] was -7.53%.
